Hit rate of the full screen: of about 350,000 compounds, about 31,000 (8.9%) were called active. Inconclusive means that the source gave no clear call. Such entries were picked first, then a sample of the others. The call rests on the fitted dose curve; in most records, active means well fitted inhibition curve with a large enough effect; inconclusive means small, poorly fitted or top-dose-only effect; inactive means no such curve, though single readings can be large or run the other way. Where the call is inconclusive, the potency comes from a doubtful curve fit.
Each molecule was assayed against Histone-lysine N-methyltransferase EHMT2 (Homo sapiens) (UniProt Q96KQ7) (assay: qHTS Assay for Inhibitors of Histone Lysine Methyltransferase G9a). Details: G9a H3K9 monomethylation, AlphaScreen, 2 h; activity, negative = inhibition: at 59 µM (top of the series) unless noted.
Sequence of UniProt Q96KQ7 (Q96KQ7 whole entry, looked up): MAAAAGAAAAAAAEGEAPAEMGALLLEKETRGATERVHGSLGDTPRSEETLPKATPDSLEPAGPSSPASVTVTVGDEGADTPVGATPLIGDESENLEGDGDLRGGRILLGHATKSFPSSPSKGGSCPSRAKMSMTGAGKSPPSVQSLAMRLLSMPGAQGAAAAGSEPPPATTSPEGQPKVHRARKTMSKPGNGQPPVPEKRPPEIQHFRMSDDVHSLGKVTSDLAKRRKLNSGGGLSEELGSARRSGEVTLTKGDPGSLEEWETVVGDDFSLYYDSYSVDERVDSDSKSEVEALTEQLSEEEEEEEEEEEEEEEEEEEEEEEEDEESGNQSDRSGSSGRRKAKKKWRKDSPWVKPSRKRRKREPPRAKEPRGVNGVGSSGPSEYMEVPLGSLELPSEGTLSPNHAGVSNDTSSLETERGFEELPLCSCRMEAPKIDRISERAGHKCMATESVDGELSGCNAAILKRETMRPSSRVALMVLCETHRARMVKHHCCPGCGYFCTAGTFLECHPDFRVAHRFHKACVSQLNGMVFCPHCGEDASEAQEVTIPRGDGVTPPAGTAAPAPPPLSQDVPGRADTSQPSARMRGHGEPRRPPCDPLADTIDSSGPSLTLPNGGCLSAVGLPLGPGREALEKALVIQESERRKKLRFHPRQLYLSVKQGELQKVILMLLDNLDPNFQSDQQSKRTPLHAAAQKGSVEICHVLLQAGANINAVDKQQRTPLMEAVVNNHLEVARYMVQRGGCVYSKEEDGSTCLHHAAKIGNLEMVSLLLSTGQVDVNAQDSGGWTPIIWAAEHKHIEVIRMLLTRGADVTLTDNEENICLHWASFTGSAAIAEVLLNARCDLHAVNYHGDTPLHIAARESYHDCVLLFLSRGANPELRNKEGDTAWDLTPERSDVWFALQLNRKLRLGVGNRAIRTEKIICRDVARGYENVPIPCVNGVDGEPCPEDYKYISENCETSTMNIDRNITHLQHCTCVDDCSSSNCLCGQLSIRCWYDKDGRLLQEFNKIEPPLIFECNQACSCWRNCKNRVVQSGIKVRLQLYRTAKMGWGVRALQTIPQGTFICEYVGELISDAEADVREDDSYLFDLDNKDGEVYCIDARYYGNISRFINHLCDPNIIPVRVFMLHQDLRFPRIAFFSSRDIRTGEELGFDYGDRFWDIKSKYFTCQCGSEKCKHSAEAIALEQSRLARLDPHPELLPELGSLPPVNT
In short: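 Compounds were preincubated with 20 nM G9a for 15 min, after which biotinylated H3K9 peptide (500 nM) and SAM (20 uM) started a 2 h room-temperature reaction. Monomethylated product was quantified by antibody-based AlphaScreen chemiluminescence.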
Further: nearly all actives have a fitted effect of over 75% in size.
On the % scale 0 is the no-effect control and ±100 the full control effect; potency means the concentration at half of the fitted maximal effect; tags describe the fitted curve by direction and shape.

Structure (SMILES)	Potency	activity, negative = inhibition
CCc1ccc(NC(=O)CC2C(=O)N(c3ccc(Cl)cc3)C(=O)N2Cc2ccco2)cc1 (stereo not given)	inconclusive: 3.55 µM [inhibitor, partial curve, poor fit]	
CCc1ccccc1Nc1nn2c(=O)c3ccc(C(=O)NC(C)c4ccccc4)cc3nc2s1 (stereo not given)		inactive: 4.99%
Cc1cc(OC(=O)c2ccc(S(=O)(=O)N3CCCCC3)cc2)c([N+](=O)[O-])c(=O)[nH]1	inconclusive: 89.1 µM [inhibitor, single point]	
COc1ccc(OCc2nnc(SCC(=O)N3CCCc4ccccc43)n2-c2ccc(C)cc2)cc1	inconclusive: 70.8 µM [inhibitor, partial curve, poor fit]	
COC(=O)c1ccc(/C=C2\SC(=S)N(CCCC(=O)NCCCN3CCOCC3)C2=O)cc1	inconclusive: 70.8 µM [inhibitor, partial curve, poor fit]	
CCn1cc(/C=N/NS(=O)(=O)c2ccc(OC)cc2)c(C)n1	inconclusive: 39.8 µM [inhibitor, single point]	
Cc1sc(NC(=O)C2C3CCC(O3)C2C(=O)O)nc1-c1ccc(CC(C)C)cc1 (stereo not given)	inconclusive: 39.8 µM [inhibitor, single point]	
Cc1ccc(S(=O)(=O)n2nc(OC(=O)c3cccc(F)c3)cc2N)cc1	inconclusive: 79.4 µM [inhibitor, single point]	
COC(=O)C1=C(C)N(c2cccc3ccccc23)C(=O)C1	inconclusive: 39.8 µM [inhibitor, single point]	
O=C(NCCCO)c1ccc2nc(-c3ccco3)c(-c3ccco3)nc2c1	active: 7.08 µM	
Cc1ccccc1C(=O)NC(=S)Nc1ccccc1[N+](=O)[O-]	inconclusive: 17.8 µM [inhibitor, full curve]	
COc1ccc(NC(=O)CSc2nc3ccc(Nc4nc(N5CCOCC5)nc(N5CCOCC5)n4)cc3s2)cc1	inconclusive: 89.1 µM [inhibitor, single point]	
CCCOc1ccc(C2C(C(=O)c3ccco3)=C(O)C(=O)N2CCN2CCOCC2)cc1OC (stereo not given)		inconclusive: -82.9% [inhibitor]
CCOC(=O)c1c(C)[nH]c(CCC(=O)NCc2ccc(F)cc2)c1C		inactive: -2.71%
Cc1onc(-c2ccccc2)c1C(=O)NNC(=S)NC(=O)/C=C/c1ccccc1	inconclusive: 10 µM [inhibitor, partial curve, poor fit]	
O=[N+]([O-])c1cccc(C(=Nc2ccc(Cl)cc2)NO)c1	inconclusive: 79.4 µM [inhibitor, partial curve, poor fit]	
CCOc1ccccc1C(=O)NC(C)c1ccc2c(c1)OCO2 (stereo not given)	inconclusive: 50.1 µM [inhibitor, partial curve]	
CCOC(=O)c1c(-c2ccc(F)cc2)csc1/N=C/N(C)C		inactive: -29% [at 102 µM]
COc1ccc(N=Nc2c(C)[nH][nH]c2=O)cc1	inconclusive: 11.2 µM [inhibitor, single point]	
COc1cccc(C2c3c(-c4ccccc4O)n[nH]c3C(=O)N2Cc2ccco2)c1 (stereo not given)		inconclusive: -57.9% [inhibitor]
COc1cc(/C=N/NC(N)=S)ccc1OCC(=O)Nc1ccc(C)cc1		inconclusive: -91.1% [inhibitor]
CCN(CC)CCn1c(NCc2nc3ccccc3n2Cc2ccccc2)nc2ccccc21	inconclusive: 89.1 µM [inhibitor, single point]	

Structure (SMILES)	Potency	activity, negative = inhibition
COC(=O)c1nc2n(n1)C(c1cc(OC)ccc1OC)C(C(=O)OC1CCCCC1)=C(C)N2 (stereo not given)		inconclusive: -56.3% [inhibitor]
O=C(Nc1c(C(=O)Nc2ccc(F)cc2)oc2ccccc12)c1ccccc1F		inactive: 17%
COCCCN(C(=S)NC(=O)c1ccc(Br)cc1)c1c(N)n(Cc2ccccc2)c(=O)[nH]c1=O	active: 50.1 µM	
COC(=O)c1c(NC(=O)C2C3CCC(C3)C2C(=O)O)sc2c1CCCCC2 (stereo not given)	inconclusive: 22.4 µM [inhibitor, partial curve, poor fit]	
O=C(Cn1nnc(-c2ccc(F)cc2)n1)OCC(=O)c1ccccc1	inconclusive: 39.8 µM [inhibitor, single point]	
COC(=O)Nc1ccc2c(c1)OCO2	inconclusive: 31.6 µM [inhibitor, single point]	
Cc1ccc(S(=O)(=O)/C(C#N)=C/c2c(N3CCN(C)CC3)nc3ccccn3c2=O)cc1	inconclusive: 89.1 µM [inhibitor, single point]	
Cc1ccc(C)c(NC(=O)CN2C(=O)COc3ccc(Cl)cc32)c1		inactive: 28.1%
CN1C(=O)/C(=C/c2coc3ccc(O)cc3c2=O)SC1=S	inconclusive: 70.8 µM [inhibitor, partial curve, poor fit]	
CC(C)(C)C(=O)Nc1ccc(C(=O)Nc2cccc(Oc3ccc(C(=O)O)c(C(=O)O)c3)c2)cc1	active: 44.7 µM	
C=CCN(c1ccc(C(=O)NCCc2ccccc2)cc1)S(C)(=O)=O	inconclusive: 89.1 µM [inhibitor, single point]	
COc1ccccc1CNC(=O)C1CCCN(c2nnc(-n3c(C)ccc3C)s2)C1 (stereo not given)		inactive: 5.21%
CCCCOc1nc(N)nc(-c2ccccc2)n1	inconclusive: 70.8 µM [inhibitor, single point]	
CC1=C(C)CC(C(=O)NCc2c(F)cccc2Cl)C(C(=O)O)C1 (stereo not given)	inconclusive: 1.78 µM [inhibitor, partial curve, poor fit]	
O=C1NC(=O)C2(COC(c3cccc([N+](=O)[O-])c3)OC2)S1 (stereo not given)		inactive: -40.3% [at 102 µM]
O=C(c1ccco1)N1CCN(C(=O)C2CCCO2)CC1 (stereo not given)	inconclusive: 3.98 µM [inhibitor, single point]	
Cn1c(SCC(=O)N2CCc3ccccc3C2)nnc1-c1cccs1	inconclusive: 25.1 µM [inhibitor, partial curve, poor fit]	
CC(C)c1ccc(S(=O)(=O)/N=C2/C=C(Sc3ncn[nH]3)C(=O)c3ccccc32)cc1	active: 1.58 µM	
Cc1ccc(C)c(Nc2c([N+](=O)[O-])ccc3nonc23)c1	inconclusive: 15.8 µM [inhibitor, partial curve, poor fit]	
CCC[N+]1(CC#CC2(O)CCCCC2)CCOCC1	inconclusive: 28.2 µM [inhibitor, single point]	
COc1cc(-c2n[nH]c(=S)n2/N=C/c2cccn2C)cc(OC)c1OC	inconclusive: 1.58 µM [inhibitor, full curve, poor fit]	
CC(=O)Nc1ccc(NC(=O)C(C)Sc2nc3nc(C)cc(C)n3n2)cc1 (stereo not given)		inactive: 10.3% [at 0.501 µM]

Structure (SMILES)	Potency	activity, negative = inhibition
O=C(O)c1ccc(COc2ccc([N+](=O)[O-])cc2)o1	inconclusive: 100 µM [inhibitor, single point]	
O=C(CSc1nc2ncc(Br)cc2[nH]1)Nc1ccc2c(c1)OCO2	inconclusive: 100 µM [inhibitor, single point]	
Cc1noc(NS(=O)(=O)c2ccc(NC(=O)C(C)C)cc2)c1C	inconclusive: 70.8 µM [inhibitor, partial curve]	
Cc1ccccc1CNS(=O)(=O)c1csc(C(N)=O)c1	inactive	
Cc1ccc(Cn2ncc3c(N4CCN(c5ccc(C)cc5)CC4)ncnc32)cc1	inconclusive: 89.1 µM [inhibitor, partial curve, poor fit]	
COc1cccc(/C=N/Nc2ncnc3c2[nH]c2ccc(C)cc23)c1OC	active: 56.2 µM	
COc1cc(NC(=S)NC(C)=O)ccc1NC(=O)C(C)C	inconclusive: 56.2 µM [inhibitor, partial curve, poor fit]	
CC(C)CCNC(=O)C(=O)Nc1ccc2c(c1)N(S(=O)(=O)c1cccs1)CCC2	inconclusive: 89.1 µM [inhibitor, partial curve]	
CCOC(=O)c1cc(-c2ccc(C)cc2)n(CCC(=O)NCCN(C)C)c1C	inconclusive: 56.2 µM [inhibitor, partial curve, poor fit]	
CSc1nc2ccccc2n1CC(=O)Nc1cc(C(F)(F)F)ccc1N1CCOCC1	inconclusive: 89.1 µM [inhibitor, single point]	
Cc1nn(-c2ccc(N3CCOCC3)nn2)c(C)c1CCC(=O)NCc1ccc(OC(C)C)cc1		inactive: 10.1%
Cc1c(C2=CCN(S(=O)(=O)c3ccc(CC(C)C)cc3)CC2)c2ccccc2n1CC(=O)N1CCCC1	inconclusive: 31.6 µM [inhibitor, partial curve, poor fit]	
Cc1cccnc1Nc1nc(-c2ccc(O)c(O)c2)cs1	active: 11.2 µM	
CCOC(=O)COc1ccc(S(=O)(=O)NCc2ccncc2)cc1	inconclusive: 79.4 µM [inhibitor, single point]	
COc1ccc(-c2nnc(SCC(=O)NC3CCCCC3)n2N)cc1	active: 44.7 µM	
COc1c(C(O)CC(C)C)ccc2c1C(=O)OCc1cc(C)cc(O)c1O2 (stereo not given)		inconclusive: -71.1% [inhibitor]
COc1ccccc1C(=O)NC(=O)COC(=O)c1ccc(Br)o1	inconclusive: 89.1 µM [inhibitor, partial curve, poor fit]	
CCOc1ccccc1C(=O)Nc1ccc2c(c1)N(C)C(=O)c1ccccc1S2		inactive: -5.64%
NC(=O)CNC(=O)[C@@H]1CC2(CC(c3ccc(Cl)cc3)=NO2)CN1C(=O)c1ccccc1 (stereo not given in full)	inconclusive: 8.91 µM [inhibitor, single point]	
Cc1cc(/C=N/n2cnnc2)c(C)n1-c1ccc(OCc2ccc(Cl)cc2)cc1	active: 39.8 µM	
CC(C)CN(C(=O)c1cc(=O)[nH]c2ccccc12)c1c(N)n(Cc2ccccc2)c(=O)[nH]c1=O	inconclusive: 89.1 µM [inhibitor, partial curve, poor fit]	

Source: PubChem BioAssay AID504332 (National Center for Advancing Translational Sciences (NCATS), 2011)
